In the BET-seq Pho4 binding data (Le et al. 2018):
The list shows a part of the results. These are noisy estimates, calculated here from bound and input reads.

Target: T1, Pho4 (S. cerevisiae) (UniProt P07270)
T1 sequence: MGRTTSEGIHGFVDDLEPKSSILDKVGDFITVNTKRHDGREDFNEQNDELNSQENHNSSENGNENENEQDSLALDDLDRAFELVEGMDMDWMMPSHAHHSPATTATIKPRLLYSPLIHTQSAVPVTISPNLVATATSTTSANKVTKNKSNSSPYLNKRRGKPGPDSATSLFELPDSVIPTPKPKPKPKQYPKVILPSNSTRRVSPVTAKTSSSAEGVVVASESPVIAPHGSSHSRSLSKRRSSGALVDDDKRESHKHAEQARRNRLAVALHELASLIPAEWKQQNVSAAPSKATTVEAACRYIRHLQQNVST
Experiment: relative binding free energy (BET-seq); higher = weaker binding
Conditions: reference: library average

Sequence | relative binding free energy [kcal/mol]
TTGTCCACGTGTGGGA | -0.16
GTATGCACGTGTCGCG | 0
AGTTTCACGTGCGGGA | 0.28
TTTAACACGTGTATAA | -0.11
ATGGGCACGTGTTTAA | -0.2
TATTTCACGTGTGAGG | 0.26
ACCTTCACGTGGTTGG | 0.4
AGTTCCACGTGGGTGG | -0.14
AGGTTCACGTGGTACA | 0.21
TTTTACACGTGGGATC | 0.1
CAGGGCACGTGCATGG | -0.22
TCGTTCACGTGATTGG | 0.37
ATTGGCACGTGTGTTC | -0.05
GTGTGCACGTGCATTA | 0
AGGTGCACGTGTACAT | 0.04
TGTACCACGTGAGTGG | 0.2
GGTGACACGTGGGCGA | 0.03
TGTAACACGTGATGCG | 0.09
GTGAACACGTGCGGGT | 0.04
TCGATCACGTGGAGTT | 0.02
TTCGACACGTGAGGTT | 0.23
TGCGACACGTGGTCGT | -0.01
GAGATCACGTGTTTTA | 0.21
TTTATCACGTGGCTGG | 0.09
GGAGACACGTGATGGG | 0.15

Sequence | relative binding free energy [kcal/mol]
TAATACACGTGTTATG | 0.07
CTCGACACGTGTTTGT | 0.04
TATTTCACGTGAGGAT | 0.37
GTGTACACGTGTAGAT | 0.07
GTAATCACGTGTGTTG | 0.11
AAATTCACGTGTTGAG | 0.25
TCGGTCACGTGTGTAA | 0.11
TGTGTCACGTGCATGT | -0.01
ATTGGCACGTGGGGGG | -0.23
CTTTTCACGTGAATGG | 0.42
GGGCGCACGTGGGATC | -0.12
AGCGTCACGTGGTTTG | 0.08
TGGTGCACGTGTCCAG | 0.02
TGGCTCACGTGGTTAG | 0.14
GTTGGCACGTGGAAGA | 0.01
TGTATCACGTGATCGA | 0.21
TTGTGCACGTGCTGTC | -0.14
GGTCTCACGTGTTTAG | 0.29
GAATGCACGTGGCATT | 0.1
AGCGGCACGTGCTGGT | -0.26
GGTTGCACGTGTACGA | 0.16
TTCGGCACGTGGCGGT | -0.05
TTTCTCACGTGTGTGT | 0.27
ATGATCACGTGTGCAG | 0.13
GGTCGCACGTGGACGG | -0.11

Sequence | relative binding free energy [kcal/mol]
TTTCTCACGTGTGAAA | 0.29
AGCATCACGTGTTTTG | 0.15
GGACGCACGTGGTGAG | -0.07
GGTCTCACGTGGTGTA | 0.22
CTTGACACGTGGGAGG | -0.13
GTCCTCACGTGAGTGT | 0.31
TGAGTCACGTGTCATG | -0.02
TTGCTCACGTGTGGGC | 0.27
GGTCACACGTGTGGTG | 0.12
ATGTACACGTGTACAG | 0.2
TTACGCACGTGGTTGC | -0.14
TACGTCACGTGATGTA | 0.1
ACTAGCACGTGGGTAT | 0.05
GGATGCACGTGGTTAA | -0.1
CCGGTCACGTGGGTGG | -0.1
CGACTCACGTGGGGGT | 0.06
TTTTACACGTGGGGCT | -0.06
AAAATCACGTGGAGGT | 0.08
TGGGGCACGTGTGTCA | -0.1
CAGGGCACGTGCGCGG | -0.21
ATTAGCACGTGGTTCG | -0.14
TCTGTCACGTGTCGTA | 0.19
AGATTCACGTGAGGAG | 0.36
CGGTGCACGTGATAGA | 0.17
CTTTGCACGTGGTCGG | -0.17

Sequence | relative binding free energy [kcal/mol]
TAAAACACGTGGGCGG | -0.11
ATAAGCACGTGATGAG | 0
GGTTTCACGTGGCGAA | 0.38
CGTGGCACGTGATGTG | 0.04
TTGCTCACGTGAGGGG | 0.33
CGGGCCACGTGCGGTG | -0.29
TGTGGCACGTGTATCA | -0.15
GATGTCACGTGGGATA | 0.03
GTGGACACGTGAAGGG | 0.29
AAAGTCACGTGGGTAG | -0.08
TGAGTCACGTGTCGAG | 0.07
AATTTCACGTGGGGAG | 0.2
GTGCTCACGTGAGGCG | 0.39
TAAGGCACGTGCGGTT | -0.11
GAGGACACGTGATGGG | 0.14
TCGGTCACGTGCTGGT | 0.14
TTTAGCACGTGTGCAT | -0.12
GGCTGCACGTGAGGAG | 0.3
GTATTCACGTGGGTCA | 0.07
TAGTTCACGTGGTGCT | 0.23
TATTGCACGTGTGTCA | 0.04
TACGACACGTGGGTTG | -0.12
TGGGGCACGTGTATCT | -0.08
TGTAGCACGTGCTGTT | -0.03
TGTTACACGTGTGTGG | 0.19

Sequence | relative binding free energy [kcal/mol]
TAAAGCACGTGATATA | 0.05
CGGGGCACGTGTCGTT | -0.19
GTTATCACGTGCTAGT | 0.09
CTGGGCACGTGTAAAG | 0.1
ATCTGCACGTGTGTTT | 0.14
TGATACACGTGTAGGT | 0
CCGTGCACGTGAGTGG | 0.24
ATGCACACGTGGTGTA | -0.02
TTTGTCACGTGGTATT | 0.04
TTTAACACGTGGTTGA | -0.08
AATAGCACGTGCATGT | 0.05
ATTTTCACGTGGAATG | 0.24
ATGGACACGTGAGTTG | 0.34
TGGAGCACGTGGGCGT | -0.18
GGGAACACGTGGCAGT | 0
TCTTTCACGTGGGGCT | 0.17
TACTACACGTGTTGTG | 0.01
GTGTGCACGTGACTAG | 0.12
GGGGACACGTGGACGG | 0.16
TAGGTCACGTGATTTC | 0.36
TATTCCACGTGTGTGA | 0.14
GGGGACACGTGTTTAG | 0.08
ATTGGCACGTGGCGCT | -0.16
AGGCCCACGTGTTGTG | -0.12
GTCGTCACGTGCATGT | 0.16

Sequence | relative binding free energy [kcal/mol]
TGTCCCACGTGGTAGG | -0.15
GAGTTCACGTGCAGGG | 0.31
GTGTTCACGTGTAGAA | 0.23
AGTAACACGTGTGTTA | 0
TTGTTCACGTGGGCGT | 0.18
TGCGGCACGTGTTAGA | -0.09
ACCTTCACGTGGGTTT | 0.23
GTTGACACGTGTTGTT | 0.16
GTAGACACGTGGGGAG | 0
GTAGGCACGTGTGTAC | -0.05
TAGGTCACGTGCATTT | 0.22
CCGTGCACGTGTAAGG | 0.18
TGCGCCACGTGGGTAT | -0.23
TGATGCACGTGTTGGT | -0.03
TGTGCCACGTGTAGTA | -0.19
CTGTACACGTGTTAGG | 0.12
GGTCGCACGTGGATGG | -0.07
GAGGTCACGTGGCGGC | -0.04
ATGGACACGTGGGGTC | -0.06
CAAGGCACGTGTGGTG | -0.16
AGTTACACGTGGTGGT | 0.2
